T1: HMGA1a 1-51 (UniProt P17096)
T1 sequence: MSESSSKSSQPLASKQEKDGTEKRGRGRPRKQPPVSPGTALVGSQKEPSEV

Amino acid sequences for entries named in this document (tags omitted). A change or cut given only in a name is not applied to a line headed by its entry. Residues count along the entry.
UniProt P06748: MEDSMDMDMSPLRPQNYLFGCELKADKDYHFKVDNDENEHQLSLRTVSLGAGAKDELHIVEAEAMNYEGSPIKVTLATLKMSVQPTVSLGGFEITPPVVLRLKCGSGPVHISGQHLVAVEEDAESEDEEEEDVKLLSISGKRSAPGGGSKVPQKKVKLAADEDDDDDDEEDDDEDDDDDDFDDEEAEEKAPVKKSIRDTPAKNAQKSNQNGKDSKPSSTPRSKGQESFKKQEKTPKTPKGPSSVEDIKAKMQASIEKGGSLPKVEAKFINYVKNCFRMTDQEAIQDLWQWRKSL
GST-NPM1 1-117: residues 1-117 of P06748
GST-NPM1 187-295: residues 187-294 of P06748
GST-NPM1 260-295: residues 260-294 of P06748

B1: recombinant HMGA1b (natural protein, UniProt P17096-2 1-96, looked up)
chain: MSESSSKSSQPLASKQEKDGTEKRGRGRPRKQPPKEPSEVPTPKRPRGRPKGSKNKGAAKTRKTTTTPGRKPRGRPKKLEKEEEEGISQESSEEEQ
notes: HMGA1b, isoform of HMGA1 from alternative splicing
B2: recombinant HMGA1a (natural protein, UniProt P17096-1 1-107, looked up)
chain: MSESSSKSSQPLASKQEKDGTEKRGRGRPRKQPPVSPGTALVGSQKEPSEVPTPKRPRGRPKGSKNKGAAKTRKTTTTPGRKPRGRPKKLEKEEEEGISQESSEEEQ
notes: HMGA1a, isoform of HMGA1 from alternative splicing

These are yes or no findings as the source states them, for the method shown. For some of these results: In cells and extracts the contact can be indirect. Some results given as binding are weak or reduced against the parent protein; the word gives no strength.

In experiment [1] the target is HMGA1b of the GST pull-down with EtBr (UniProt P17096). As to the kind of experiment: pull-down; GST pull-down with increasing concentrations of EtBr (supplementary Fig. S3); plasmid DNA used to in vitro translate NPM1 is present.
The experiment “recombinant HMGA1a” has as its target B2. As to the kind of experiment: far-Western, overlay or dot blot; HMGA proteins and HMGA1a truncated forms separated by SDS-PAGE and blotted; probe: in vitro translated [35S]-labelled full length NPM1 (1-295); fluorography; only the target purified.
A further experiment addresses T1, HMGA1a 1-51. Described as above.
The target in another experiment is HMGA1a 1-79 (UniProt P17096). The experiment is described as above.
The target of experiment [2] is GST-NPM1 1-295 (full length) (UniProt P06748). Briefly: pull-down; GST pull-down with HA-tagged full length HMGA proteins, both detected with the same antibody (supplementary Fig. S2).
Experiment [3] deals with HMGA1, endogenous in HepG2 cells (human (endogenous in HepG2)) (UniProt P17096). As to the kind of experiment: co-IP; HepG2 lysate (1 mg) on protein G Sepharose with immobilised anti-HMGA1 or anti-HMGA2 antibody; 25 mM Tris/HCl pH 8, 0.5% NP40, 10% glycerol, 125 mM NaCl; 3 h at 4°C; NPM1 detected by western blot.
In the next experiment the target is GST-NPM1 1-117 (UniProt P06748). As to the kind of experiment: pull-down; GST-fused NPM1 forms as bait with recombinant HMGA proteins; bound proteins seen by western blot with anti-HMGA1 and anti-HMGA2 antibodies; both purified. Background: Immunoblotting shows a protein as a band on a membrane.
The target of another experiment is GST-NPM1 187-295 (UniProt P06748). The experiment is described as above.
The target of a further experiment is GST-NPM1 260-295 (UniProt P06748). The description is as above.
For experiment [4], the target named is GST-NPM1 1-295 (full length) (UniProt P06748). As to the kind of experiment: condition: only salt concentration above 150 mM (NaCl series up to 300 mM); pull-down; full length GST-NPM1 with recombinant HMGA1a or HMGA2 in a series of 50 to 300 mM NaCl; here the samples above 150 mM salt; both purified.

As to “in vitro transcribed, translated and [35S]-radiolabelled full length NPM1 (1-295) (from UniProt P06748 1-294)”, the binding result in experiment [1] was “binds”; with recombinant HMGA1a, “binds”; with HMGA1a 1-51, “no binding”; with HMGA1a 1-79, “binds”.

For “HA-HMGA1a (HA-tagged full length HMGA1a) (from UniProt P17096-1 1-107)”, the binding entry in [2] was “binds”.

Turning to “nucleophosmin (NPM1), endogenous in HepG2 cells (from UniProt P06748 1-294)”, the binding entry in experiment [3] is listed as “binds”.

On to B1, for which the binding entry in the experiment with GST-NPM1 1-117, in the experiment with GST-NPM1 187-295 and in the experiment with GST-NPM1 260-295 was “no binding” in each case.

Consider B2, for which the binding entry (with GST-NPM1 1-117; with GST-NPM1 187-295; with GST-NPM1 260-295; in experiment [4]) was “no binding” throughout.
